Hit rate of the full screen: of about 150,000 compounds, about 540 (0.36%) showed an effect of 50% or more. The list shows a part of the results.

The subject of this assay is Plasmodium falciparum. The assay is described as follows: Primary screen in NF54 nanoGlo assay, in single point, at 2uM, 72h; a lower Z score goes with more inhibition. The following applies: timepoint 72 hour. It is filed as functional, Erythrocyte.
As for `C=CC[C@]1(C(=O)O)CCCN(Cc2cnc(N(C)C)s2)C1`, the % Inhibition (usually the relative decrease from the control value, in per cent) was found to be 0% and the Z score is reported as -0.08.

In the case of `O=C(c1cc(Cl)c(Cl)[nH]1)N(Cc1ccncc1)C1CC1`, the “% Inhibition” value is recorded as -16% and the Z score is 2.56.

For `Cc1cc(C)cc(NC(=O)c2ncoc2-c2ccco2)c1`, the “% Inhibition” value is reported as -10% and the Z score stood at 1.01.

On to `O=C(NCCn1cc(-c2ccoc2)cn1)c1ccncc1`, for which the “% Inhibition” value is recorded as -8% and the Z score is 1.45.

Turning to `O=C(O)CN1CCCC[C@H](N2CCN(c3cccc(Cl)c3)CC2)C1=O`, the “% Inhibition” value came to 5% and the Z score is on record as -0.44.

As for `CN1CCN(C)[C@@H](CC(=O)N2CC(Oc3ccccc3F)C2)C1`, the “% Inhibition” value was -8% and the Z score is reported as 1.06.

In the case of `CC(C)c1cc(C(=O)N2CCC3(CC[C@H](CNC(=O)c4ccco4)O3)CC2)nc(N)n1`, the “% Inhibition” value stood at 2% and the Z score is on record as -0.5.

On to `Cn1nc(CN(Cc2ccco2)C(=O)c2ccc(F)c(F)c2)c2c1CCC2`, for which the “% Inhibition” value is listed as 3% and the Z score is -0.64.

In the case of `COc1ccc2c(c1)CN(Cc1ccccc1Cl)CC[C@H]1COC(=O)N21`, the “% Inhibition” value is given as 28% and the Z score is reported as -2.08.

As to `Cc1cc2ccccc2n1CC(=O)N1C[C@@H]2[C@H](C1)[C@H]2NC(=O)C1CCN(C)C1=O` (stereo partly specified), the “% Inhibition” value is on record as -6% and the Z score was determined as 1.09.

As for `Cc1n[nH]c(C)c1CNC(=O)N1CCN(CC(F)(F)F)[C@@H](C)C1`, the “% Inhibition” value is -2% and the Z score was 0.39.

Regarding `Cc1cc(C(=O)N2CCC3(CC2)CC3(F)F)c(C)o1`, the “% Inhibition” value was -16% and the Z score came to 3.24.

Regarding `c1ccc(-n2nc(C3CC3)nc2-c2n[nH]c3c2CCC3)cc1`, the “% Inhibition” value is on record as 7% and the Z score is -0.81.

As for `COc1cc(OC)cc([C@@H](CC(=O)NCC(C)C)c2cn(Cc3ccccc3)c3ccccc23)c1`, the “% Inhibition” value is -7% and the Z score is 0.91.

Turning to `Cc1ccsc1C(=O)N1CCCn2nc(-c3ccncc3)cc2C1`, the “% Inhibition” value is -20% and the Z score is given as 1.74.

In the case of `Cc1ccc(CC(=O)N(C)C[C@H](C)O)cc1O`, the “% Inhibition” value worked out at 5% and the Z score is given as -0.74.

Consider `Cc1cc(NC(=O)c2cccc(-n3ccnn3)c2)nc(=O)[nH]1`, for which the “% Inhibition” value is recorded as -14% and the Z score turned out to be 2.12.

Consider `CC(NC(=O)C1CCC1)C1CC2CCC1C2` (stereo unspecified), for which the “% Inhibition” value is -12% and the Z score was 1.45.

Consider `Cc1cc(=O)[nH]c(NCCNC(=O)NCc2cc(C3CC3)[nH]n2)n1`, for which the “% Inhibition” value amounted to 4% and the Z score is recorded as -0.7.

As for `C[C@@H](c1cc2ccccc2[nH]1)N(C)C(=O)c1cnn2c1CCCC2`, the “% Inhibition” value is given as -30% and the Z score came out at 3.78.

Take `Cc1csc(N(C(=O)CCn2nc(C)cc2C)C2CC2)n1`: the “% Inhibition” value was -15% and the Z score came out at 2.16.

As for `O=C1[C@@H]2CCCN2S(=O)(=O)N1Cc1ccccc1`, the “% Inhibition” value is -7% and the Z score was 1.11.

`C#CCOC(=O)c1ccc2cc[nH]c2n1`: the “% Inhibition” value is on record as -5% and the Z score is 0.77.

In the case of `Fc1ccc(-c2nn(-c3ccccc3)cc2C=Cc2ccccn2)cc1`, the “% Inhibition” value is on record as -7% and the Z score is on record as 0.76.

As to `CCn1cc(S(=O)(=O)NC(=O)c2cccn2C2CCCC2)cn1`, the “% Inhibition” value was -12% and the Z score is 1.68.

As for `O=S(=O)(c1ccc(F)c(F)c1)N1CCCN([C@H]2CCOC2)CC1`, the “% Inhibition” value is on record as -14% and the Z score amounted to 2.38.

As for `O=C(c1ccoc1)N1CCC(CCOc2ccccc2F)CC1`, the “% Inhibition” value is -1% and the Z score worked out at 0.12.

As for `Cc1ccc([C@@H](C)CCN(C)Cc2cc[nH]n2)o1`, the “% Inhibition” value is -7% and the Z score is 1.

Turning to `Cc1nnc2n1C[C@@H](NC(=O)Nc1cccc(CN3CCCCC3=O)c1)CC2`, the “% Inhibition” value was 22% and the Z score is -2.88.

With `Cn1c(Cn2cccn2)nnc1C1CCN(c2nccc(N)n2)CC1`, the “% Inhibition” value is recorded as -3% and the Z score worked out at 0.55.

Consider `Cc1ccc(-c2nccn3cc(C(=O)NCc4ccccn4)nc23)cc1`, for which the “% Inhibition” value is reported as -11% and the Z score stood at 1.59.

In the case of `CC(C)C(=O)N1CCc2cc(CNC(=O)Cc3cccs3)ccc21`, the “% Inhibition” value was -6% and the Z score worked out at 0.95.

Turning to `O=c1cc(-c2ccccc2)n(S(=O)(=O)c2ccc(Br)cc2)o1`, the “% Inhibition” value is recorded as 8% and the Z score is -1.07.

For the molecule `CCC[C@H]1CN(C(=O)c2cnc(-c3ccncc3)nc2)C[C@@H]1N(C)C`, the “% Inhibition” value is given as -3% and the Z score was 0.55.

In the case of `CC(C)c1nnc(NC(=O)[C@H](Cc2ccccc2)NC(=O)N2CCCC2)s1`, the “% Inhibition” value was -6% and the Z score is reported as 0.75.

In the case of `COc1ccc(CCC(=O)N2C[C@@H](CN3CCN(C)CC3)[C@@H](CO)C2)cc1`, the “% Inhibition” value is -12% and the Z score stood at 1.51.

Turning to `Cc1ccc(C)c(C(C)N(C)C(=O)C2CCCNC2)c1` (stereo unspecified), the “% Inhibition” value is -10% and the Z score amounted to 0.84.

Turning to `CN(C)c1cccc(C(=O)Nc2ccc(-c3nnc4n3CCCCCC4)cc2)c1`, the “% Inhibition” value is recorded as -22% and the Z score is on record as 2.48.

With `COc1cccc(C(=O)N2C[C@@H]3CN(CC(C)C)CC[C@]3(CO)C2)c1C`, the “% Inhibition” value is recorded as -12% and the Z score stood at 1.68.

Consider `O=C(NC1CCN(C2CC2)CC1)C1CC1c1cccc(F)c1F` (stereo unspecified), for which the “% Inhibition” value was 8% and the Z score is listed as -0.79.

For the molecule `Cc1cc(C)nc(NS(=O)(=O)c2ccc(NCc3cc(Cl)cc(Cl)c3O)cc2)n1`, the “% Inhibition” value worked out at 5% and the Z score is reported as -0.8.

Take `O=C(N[C@H]1CCCN(Cc2ccncc2)CC1)c1ncoc1C1CC1`: the “% Inhibition” value is reported as -5% and the Z score is 0.83.

Regarding `CC(C)Oc1nccnc1NC[C@](C)(O)c1cccc(Cl)c1`, the “% Inhibition” value turned out to be 31% and the Z score is on record as -4.42.

Turning to `O=C(NC1CCN(C[C@H]2CCCO2)CC1)N1CCC(c2ccccc2)CC1`, the “% Inhibition” value is -14% and the Z score amounted to 1.53.

As to `COc1ccc(N(C)S(=O)(=O)c2ccsc2-c2nc(-c3cccc(C)c3)no2)cc1Cl`, the “% Inhibition” value is reported as -7% and the Z score was determined as 0.94.

As to `CCC[C@H](C)C(=O)Nc1nnc(C)s1`, the “% Inhibition” value was -12% and the Z score is 2.27.

Turning to `Nc1nnnn1CC(=O)N1CCC2(CCC(=O)N(CCc3cccnc3)C2)CC1`, the “% Inhibition” value is recorded as -6% and the Z score was 1.05.

For the molecule `Cc1nc2ccccc2n1CCN[C@@H](C)CCN1C(=O)c2ccccc2C1=O`, the “% Inhibition” value was -3% and the Z score turned out to be 0.44.

As to `CCOc1ccc(CNC(=O)c2cccn2-c2cccnc2C)cc1`, the “% Inhibition” value is recorded as 2% and the Z score was -0.17.

Consider `CCc1cn[nH]c1[C@H]1CCCN(C(=O)c2cc3c(nc2OC)CCC3)C1`, for which the “% Inhibition” value was -9% and the Z score came to 1.12.

With `O=C(c1ccco1)N1CCN(c2nnnc3c2cnn3-c2ccccc2)CC1`, the “% Inhibition” value is reported as -12% and the Z score turned out to be 1.81.

For the molecule `CCc1nnc2c(S(=O)(=O)N(Cc3ccccc3F)c3ccc(F)cc3)cccn12`, the “% Inhibition” value was found to be 0% and the Z score is given as 0.03.

Regarding `Cc1cc(C)n(CCN[C@@](C)(CO)C2CCCCC2)n1`, the “% Inhibition” value was -3% and the Z score is recorded as 0.52.
